Test results as given in PubChem BioAssay AID686979 (National Center for Advancing Translational Sciences (NCATS), 2013).
Out of some 420,000 compounds screened, about 50,000 (12%) were called active. The shares of active, inactive and inconclusive entries below differ from those in the screen. Calls come from the whole dose curve; as a rule, active = well fitted inhibition curve with a large enough effect; inconclusive = small, poorly fitted or top-dose-only effect; inactive = flat fitted curve, though single readings scatter. Potencies of inconclusive entries are left out as doubtful fits.

Assay: qHTS for Inhibitors of human tyrosyl-DNA phosphodiesterase 1 (TDP1): qHTS in cells in presence of CPT; note: nearly all actives have a fitted effect of over 55% in size
Conditions: chicken DT40 Tdp1-/-;hTDP1 cells + 20 nM CPT, ATP luminescence, 48 h; activity change, negative = growth inhibition: at 46.2 µM (top of the series) unless noted
Method in brief: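 Cell growth measured by CellTiter-Glo luminescence after a minimum 48 h, 37 C compound exposure with 20 nM CPT in Tdp1-knockout DT40 cells stably expressing hTDP1, seeded 400/well; qHTS titration format.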
% is set by controls: 0 for no effect and ±100 for the full control effect; potency is the fitted concentration of half-maximal effect; tags give direction and shape of the fitted curve.

SMILES | activity change, negative = growth inhibition | Potency
CCCCOc1ccccc1C1C(C(=O)OC)=CN(CC)C=C1C(=O)OC | inconclusive: -33.6% [inhibitor] | –
Cc1cc(Br)ccc1N=C1C(=O)Nc2ccccc21 | – | inactive
O=C(NCCCN1CCCC1)c1ccc(CS(=O)(=O)c2c(Cl)cccc2Cl)o1 | – | inactive
Cc1ccc(C)c(S(=O)(=O)N2CCCOC2CNC(=O)C(=O)NC2CCCC2)c1 (stereo not drawn) | – | inactive
Cc1noc(C)c1NC(=O)Nc1ccc2c(c1)C(=O)N([C@H](C)CO)C[C@H](C)[C@@H](CN(C)S(=O)(=O)c1c(C)noc1C)O2 | – | inactive
C=CCn1c(=NC(=O)c2sc3ccccc3c2Cl)sc2cc(S(N)(=O)=O)ccc21 | – | inconclusive [inhibitor, single point]
CCOC(=O)c1[nH]c(C)c(C(=O)Nc2ccccc2F)c1C | – | active: 2.31 µM
C[C@H](NC(=O)[C@@H]1CCCN1C(=O)[C@@H]1CCCN1C(=O)c1cccc(Cl)c1)c1ccccc1 | – | inconclusive [inhibitor, single point]
CCN(CCN1CCCC1)C(=O)c1cc(COc2ccccc2SC)on1 | – | inactive
CCn1c(SCC(=O)Nc2ccc(Cl)cc2)nc2nc3c(cc2c1=O)CCCC3 | – | inconclusive [inhibitor, single point]
CNC(=O)[C@@H]1C[C@@H](NCc2cccc(Oc3ccccc3)c2)CN1C(C)C | – | inconclusive [inhibitor, single point]
CCCc1c(C(=O)N/N=C(\C)c2ccccc2O)nnn1-c1nonc1N | – | active: 8.2 µM
O=Cc1ccccc1-c1cn(CCCOCc2ccccc2)nn1 | – | inconclusive [inhibitor, single point]
Cn1c(=O)c2c(nc(N3CCCCCC3)n2CC(O)COc2ccccc2)n(C)c1=O (stereo not drawn) | – | active: 23.1 µM
Cc1cc(F)cc(-c2cc(C(=O)NCc3ccc(C(F)(F)F)cc3)[nH]n2)c1 | – | inconclusive [inhibitor, partial curve, poor fit]
CC(=O)Nc1ccc(S(=O)(=O)NC2(C(F)(F)F)NC(=O)N(CC(C)C)C2=O)cc1 (stereo not drawn) | – | inactive
COC(=O)c1cc2c(C)c(C)c3ccccn3c-2c1C(=O)OC | – | active: 25.9 µM
C[C@@H](NCc1cc(Br)cc2[nH]c(=O)c(=O)[nH]c12)P(=O)(O)O | – | inactive
Cc1ccc2oc(=O)n(CC(=O)N3CCOCC3)c2c1 | – | inactive
CC1(C(=O)Nc2cccc(NS(C)(=O)=O)c2)CCN1CCc1ccccc1 (stereo not drawn) | – | inconclusive [inhibitor, single point]
CCn1ncc(/C=N\NC(=O)COc2cc(C)cc(C)c2)c1C | – | inconclusive [inhibitor, single point]
Cc1ccccc1-c1nn(-c2ccccc2)cc1C(=O)NCC(c1ccco1)N1CCCC1 (stereo not drawn) | – | active: 20.6 µM
COc1ccc(S(=O)(=O)N(CCc2ccccc2)CC(=O)Nc2ccc(C)c(C)c2)cc1OC | – | active: 14.6 µM
CCCCC1NC(=S)N(C2CCCCC2)C1=O (stereo not drawn) | – | inconclusive [inhibitor, single point]
CN1C(=O)c2ccc(C(=O)Nc3ccccc3O)cc2C1=O | – | inactive

SMILES | activity change, negative = growth inhibition | Potency
C#CC1(O)CCC2C3CCc4cc(O)cc(C)c4C3CCC21C (stereo not drawn) | – | active: 16.4 µM
COc1ccc(CCCc2nnc(SCC(=O)Nc3ncc(C)s3)o2)cc1 | – | inconclusive [inhibitor, partial curve, poor fit]
c1ccc(-c2cnnc(N3CCOCC3)n2)cc1 | – | inconclusive [inhibitor, partial curve]
COc1ccc(CCNC(=O)CSc2nc(C)nc3c2oc2ccccc23)cc1OC | – | inconclusive [inhibitor, single point]
C=CCNC(=O)CN1CCN(C(c2ccccc2)c2ccccc2)CC1 | – | inconclusive [inhibitor, single point]
O=C(Nc1cccc(-c2nc3ccccc3o2)c1)c1ccc(-c2ccc(Br)cc2)o1 | – | inconclusive [inhibitor, partial curve]
CN(Cc1ccccc1)C(=O)COC(=O)C12CC3CC(CC(Br)(C3)C1)C2 | – | active: 25.9 µM
OC(c1cccnc1)c1nc(-c2ccc3c(c2)OCO3)cs1 (stereo not drawn) | – | inconclusive [inhibitor, partial curve, poor fit]
Cc1ccc(S(=O)(=O)N2CCC(=O)N(C(COCc3cccc(C)c3)C(C)C)CC2)cc1 (stereo not drawn) | – | inconclusive [inhibitor, single point]
COc1ccc(-n2nnnc2C(C2CC2)N2CCN(C/C=C/c3ccccc3)CC2)cc1 (stereo not drawn) | – | inconclusive [inhibitor, single point]
CCN(CC)CCCN(Cc1cc2cc3c(cc2[nH]c1=O)OCO3)C(=O)Nc1ccccc1OC | inconclusive: -34.2% [inhibitor] | –
COC(=O)C(=C/C(C)=C/c1cccs1)C(=O)OC | – | inconclusive [inhibitor, single point]
CCN(CC(=O)NCc1cccs1)S(=O)(=O)c1ccccc1Cl | – | inactive
O=C(COC(=O)c1cc([N+](=O)[O-])ccc1NCc1ccccc1)NC1CCCc2ccccc21 (stereo not drawn) | inconclusive: -33.5% [inhibitor] | –
COc1ccc(CNc2oc(C)nc2C#N)cc1 | – | inconclusive [inhibitor, single point]
Cc1ccc(S(=O)(=O)N2CCOCC2)s1 | – | inactive
COC(=O)c1cnc(Oc2ccc(NC(=O)NC(=O)c3ccccc3Cl)cc2)cc1C(F)(F)F | – | inconclusive [inhibitor, full curve]
CCN(CC)CCNC(=O)C(Cl)=C1C(Cl)=C(Cl)C(Cl)=C1Cl | – | inconclusive [inhibitor, single point]
COc1cccc(/C=C2\SC(=S)N(CCC(=O)NC3C=CS(=O)(=O)C3)C2=O)c1 (stereo not drawn) | – | inconclusive [inhibitor, single point]
O=S(=O)(Nc1ccc(-c2ccc(N3CCCC3)nn2)cc1)c1ccc(Cl)cc1 | – | active: 14.6 µM
COc1cc(OC)c(C2C(C(=O)N3CCOCC3)=C(C)NC3=C2C(=O)CC(C)(C)C3)cc1OC (stereo not drawn) | – | inactive
Cc1cc(C)cc(NS(=O)(=O)c2ccc(Oc3ncc(C(F)(F)F)cc3Cl)cc2)c1 | – | active: 23.1 µM
O=C(c1cccc(S(=O)(=O)N2CCCCC2)c1)N1CCCCC1 | – | inactive
CC1C(=O)N2CCCc3cc(S(=O)(=O)N4CCN(c5ccc(F)cc5)CC4)cc1c32 (stereo not drawn) | – | inactive
CCCCc1ccc(NC(=O)CSc2nc(=O)n(CCN(CC)CC)c3c2CCCC3)cc1 | – | inconclusive [inhibitor, single point]

SMILES | activity change, negative = growth inhibition | Potency
Cc1cccc2nc(CNC(=O)CN3Cc4cc(Cl)ccc4OC(C)C3)cn12 (stereo not drawn) | – | active: 4.11 µM
CCOc1ccccc1-n1cnc2cc(C(=O)NCc3ccco3)ccc21 | – | inconclusive [inhibitor, single point]
CC(C)N(C(=O)CSc1nc2ccc(Cl)cc2[nH]1)c1ccccc1 | – | inconclusive [inhibitor, single point]
COc1ccc(CN(Cc2ccccc2)C(=O)c2ccncc2)cc1COc1ccc(NC(C)=O)cc1 | – | inconclusive [inhibitor, single point]
CCOc1ccc2[nH]c(=O)c(CN(Cc3ccco3)C(CC)c3nnnn3Cc3ccccc3)cc2c1 (stereo not drawn) | – | inconclusive [inhibitor, single point]
O=C(O)CCN(CCC(=O)O)c1ccc(/C=C/c2ccnc3ccccc23)cc1 | – | inactive
CCc1nc2c(OCc3ccccc3C(=O)OC)cccn2c1N(C)C(=O)c1cccs1 | – | inconclusive [inhibitor, single point]
O=C(NNC(=O)c1cc2ccccc2o1)c1ccc(Cl)cc1 | – | inactive
Cc1ccc(NS(=O)(=O)c2ccc3c(c2)N(C)CCO3)cc1 | – | inconclusive [inhibitor, single point]
CCCCCCCCCCCCC(NC(C)=O)(C(=O)OCC)C(=O)OCC | – | inconclusive [inhibitor, single point]
O=C(N/N=C/c1ccc(O)cc1)c1cncc(Br)c1 | – | inactive
Cc1nsc2c1ccc1ccccc12 | – | inactive
COc1ccc(C(c2nnnn2C2CCCCC2)N2CCN(c3ccccc3F)CC2)cc1 (stereo not drawn) | – | inconclusive [inhibitor, single point]
COC(=O)[C@@H](NC(=O)Nc1ccc(OC(F)(F)F)cc1)C(C)C | – | inactive
COc1ccccc1NC(=S)NC1CCCCCC1 | – | inconclusive [inhibitor, single point]
Cc1cccc(NC(=O)c2oc(=O)c3ccccc3c2-c2ccccc2)c1C | – | active: 10.3 µM
CCOc1ccccc1CN1CCN(Cc2cccc3c2OCO3)CC1CCO (stereo not drawn) | – | inconclusive [inhibitor, single point]
Cc1ccc(CNS(=O)(=O)c2c(C(=O)N3CCCCCC3)c(C)n(C)c2C)cc1 | – | inactive
COc1cc(/C=N/NC(=O)c2cc(C34CC5CC(CC(C5)C3)C4)[nH]n2)ccc1O | – | inconclusive [inhibitor, single point]
CCn1c(=O)n(CC)c2cc(N3CCCC3)c(NC(=O)c3ccccc3C)cc21 | – | active: 16.4 µM
Cn1c(=O)c2sccc2n2c(CCCC(=O)NCc3ccco3)nnc12 | – | inactive
Cc1cc(N/N=C/c2ccccc2)nc(NCc2ccccc2)n1 | – | active: 4.61 µM
O=C(c1ccc(F)cc1)N1c2nc(-c3ccco3)nn2C2(CCCCC2)[C@@H]2CCCC[C@@H]21 | – | inconclusive [inhibitor, single point]
